# Measured values reported in PubChem BioAssay AID686979 (National Center for Advancing Translational Sciences (NCATS), 2013).
# About 50,000 (12%) of roughly 420,000 compounds were called active. The shares of active, inactive and inconclusive entries below differ from those in the screen. Calls come from the whole dose curve; as a rule, active = well fitted inhibition curve with a large enough effect; inconclusive = small, poorly fitted or top-dose-only effect; inactive = flat fitted curve, though single readings scatter. No potency is given beside an inconclusive call; the fits are too rough.
# Test: qHTS for Inhibitors of human tyrosyl-DNA phosphodiesterase 1 (TDP1): qHTS in cells in presence of CPT; note: nearly all actives have a fitted effect of over 55% in size
# Conditions: chicken DT40 Tdp1-/-;hTDP1 cells + 20 nM CPT, ATP luminescence, 48 h; activity change, negative = growth inhibition: at 46.2 µM (top of the series) unless noted
# Procedure, shortened: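 Cell growth measured by CellTiter-Glo luminescence after a minimum 48 h, 37 C compound exposure with 20 nM CPT in Tdp1-knockout DT40 cells stably expressing hTDP1, seeded 400/well; qHTS titration format.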
# % is set by controls: 0 for no effect and ±100 for the full control effect; potency is the fitted concentration of half-maximal effect; tags give direction and shape of the fitted curve.
SMILES,Potency,"activity change, negative = growth inhibition"
CC(NC(=O)COC(=O)c1ccc(OCC2CCCO2)cc1)c1ccccc1Cl (stereo not drawn),"inconclusive [inhibitor, partial curve]",
COc1cccc(-c2nc(N3CCNCC3)c3ccccc3n2)c1,"inconclusive [inhibitor, single point]",
C/C(Cc1ccccc1)=N\NC(=O)CNC(=O)c1cccc(Cl)c1,"inconclusive [inhibitor, single point]",
CCOC(=O)c1ccccc1NC(=O)c1sc2ncn(Cc3cccc(F)c3)c(=O)c2c1C,"inconclusive [inhibitor, single point]",
Cc1ccc(C2=Nc3ccccc3N(CC(=O)NCc3ccc(F)cc3)C(=O)C2)cc1C,active: 14.6 µM,
COc1ccc(/C=C(\C#N)c2nc(-c3cc4c(ccc5ccccc54)oc3=O)cs2)cc1O,active: 2.91 µM,
O=C(c1ccncc1)N1CCC2(CC1)CCN(c1ccccc1)CC2,,inactive: -8.38%
COc1ccc2c(C)cc(N3CCN(c4ccc(F)cc4)CC3)nc2c1,"inconclusive [inhibitor, single point]",
COc1ccc(N(CC(=O)NC2CCCC2)C(=O)Cn2nnc(-c3ccc(C)cc3)n2)cc1,"inconclusive [inhibitor, partial curve]",
CC(C)Cn1cnc2c1c(=O)n(CC(=O)NN)c(=O)n2Cc1ccccc1,,inactive: -2.23%
COc1ccc(C(=O)Nc2cccc(OCc3cc(=O)n4c5c(sc4n3)CCCC5)c2)cc1,,inactive: 1.28%
CC(C)COc1ccc(CNC(=S)Nc2ccccc2)cc1Cl,"inconclusive [inhibitor, single point]",
O=C(CCCCCNC(=O)N1CCn2c1nc1ccccc12)NCc1ccccc1,"inconclusive [inhibitor, single point]",
Cc1ccc(C)c(NC(=O)CSc2c3c(nc4ccc(Cl)cc24)CCCC3)c1,active: 20.6 µM,
CC(Sc1nnc(CN2CCCC2)n1Cc1ccccc1)C(=O)Nc1ccc(F)cc1Cl (stereo not drawn),active: 18.4 µM,
CCOC(=O)CC1C(=O)NCCN1C(=O)c1sc2ccccc2c1Cl (stereo not drawn),,inactive: -18.6%
COc1ccc(OC)c(S(=O)(=O)NCc2cccn2Cc2cccc(C)c2)c1,"inconclusive [inhibitor, single point]",
Clc1ccc(OCCN2CCN(c3ncnc4sccc34)CC2)cc1,active: 0.58 µM,
COc1ccc(CNC(=O)CSc2nc3ccccc3nc2Cc2ccccc2OC)cc1,,inconclusive: -19.8% [inhibitor]
COc1ccc(CC(=O)Nc2cccc(-c3nnc(-c4cccc(C)c4)o3)c2)cc1OC,"inconclusive [inhibitor, single point]",
O=C(NC1CCCCCC1)c1c(O)c2ccccc2[nH]c1=O,,inactive: -26.4%
CCOc1cc(C)nc(N2CCCC(C(=O)NCc3ccccc3F)C2)n1 (stereo not drawn),"inconclusive [inhibitor, partial curve]",
COc1ccc(CCNC(=O)c2cc(S(=O)(=O)N3CCOCC3)ccc2F)cc1,"inconclusive [inhibitor, partial curve, poor fit]",

SMILES,Potency,"activity change, negative = growth inhibition"
COc1ccccc1-c1cc(C(=O)Nc2ccccc2C(F)(F)F)no1,,inconclusive: -30.7% [inhibitor]
COc1ccccc1C(=O)NNC(=O)CCCN1C(=O)/C(=C/c2cccs2)SC1=S,"inconclusive [inhibitor, single point]",
COc1ccc(CNC(=O)COC(=O)c2ccc(S(=O)(=O)N3CCOCC3)cc2)cc1,,inactive: 0.166%
CCc1ccccc1NC(=O)Nc1ccc(F)cc1,"inconclusive [inhibitor, single point]",
COc1ccc(-c2nn(-c3ccccc3)cc2/C=N/NC(=O)c2cccc(S(=O)(=O)Nc3ccccc3Cl)c2)cc1,"inconclusive [inhibitor, single point]",
O=C(O)c1ccccc1NC(=S)NC(=O)c1sc2ccccc2c1Cl,"inconclusive [inhibitor, single point]",
COC(=O)c1cc2c(cc1NC(=O)c1cnn(-c3ccc(C)cc3)c1-n1cccc1)OCO2,,inactive: -8%
O=c1c2cc([N+](=O)[O-])ccc2nc(CN2CCN(c3ccccn3)CC2)n1-c1ccccc1F,"inconclusive [inhibitor, partial curve, poor fit]",
CCN1CCN(c2cc3c(cc2F)c(=O)c(S(=O)(=O)c2ccccc2)cn3C)CC1,inactive,
O=S1(=O)CCOCCCN1Cc1ccccc1,inactive,
N#C/C(=C(/O)COc1ccc(Cl)cc1)c1nc2ccccc2s1,"inconclusive [inhibitor, partial curve]",
CCc1nnc(NC(=O)CSc2ccc(-c3ccco3)nn2)s1,,inactive: 5.26%
CCc1cccc(NC(=O)Cn2c(=O)c3cccn3c3ccccc32)c1,,inactive: -4.66%
C[C@H](CO)N1C[C@H](C)[C@@H](CN(C)S(C)(=O)=O)Oc2ccc(NC(=O)Nc3ccc(C(F)(F)F)cc3)cc2C1=O,"inconclusive [inhibitor, full curve, poor fit]",
O=C(Nc1ccccc1)Nc1ccc2ccccc2c1,,inactive: -6.68%
COc1cc(NC(=O)C2=C(C)OCCS2)c(Cl)cc1C(=O)NCCN1CCN(C)CC1,"inconclusive [inhibitor, single point]",
O=C(CCNC(=O)c1ccco1)NCCN1C(=O)S/C(=C\c2ccc(F)cc2)C1=O,"inconclusive [inhibitor, single point]",
FC(F)(F)c1cc(Nc2ccccc2)nc(-c2ccccn2)n1,"inconclusive [inhibitor, single point]",
COc1ccc(Nc2nc(N3CCCC3)nc(N3CCCC3)n2)c(OC)c1,"inconclusive [inhibitor, single point]",
CCc1ccc2c(c1)C1(NN=C(c3ccc(C)cc3)S1)C(=O)N2 (stereo not drawn),active: 16.4 µM,
c1ccc(CN2CCN(c3ncnc4nc[nH]c34)CC2)cc1,"inconclusive [inhibitor, partial curve]",
CC(C)C(NC(=O)c1cccc(S(=O)(=O)N2CCOCC2)c1)C(=O)NCc1ccc(Cl)cc1 (stereo not drawn),"inconclusive [inhibitor, single point]",
Cc1cccc(CNC(=O)CSCc2cnn(-c3ccccc3)c2-n2cccc2)c1,"inconclusive [inhibitor, single point]",

SMILES,Potency,"activity change, negative = growth inhibition"
O=C(NCC(=O)N1CCN(c2cccc(Cl)c2)CC1)c1ccc(Br)o1,"inconclusive [inhibitor, single point]",
COC(=O)c1c(NC(=O)Cc2ccccc2)sc2c1CCN(C(C)C)C2,,inconclusive: -40% [inhibitor]
CC1=C(C(=O)OCc2ccccc2)C(c2cccc(Cl)c2Cl)CC(=O)N1 (stereo not drawn),"inconclusive [inhibitor, full curve]",
O=C(CSc1nc2ccccc2c(=O)n1-c1ccc(F)cc1)Nc1ccc(Cl)c(S(=O)(=O)N2CCOCC2)c1,"inconclusive [inhibitor, partial curve]",
CCCN1C2=C(C(=O)CCC2)C(c2ccc(O)c(Br)c2)C2=C1CCCC2=O,"inconclusive [inhibitor, single point]",
Cn1c(=O)c2cc(NC(=S)NC3CCCCC3)ccc2n1C/C=C/c1ccccc1,"inconclusive [inhibitor, single point]",
CCn1c(=O)cc(SCC(=O)NCc2ccc3c(c2)OCO3)c2ccccc21,,inactive: -32.1%
CC(C)[N+]1(C)C2CCC1CC(OC(=O)C(CO)c1ccccc1)C2 (stereo not drawn),inactive,
C(=C\c1ccnc2ccccc12)/c1ccc(N2CCNCC2)cc1,"inconclusive [inhibitor, partial curve, poor fit]",
Cc1cc(C)c2c(c1)C(=O)/C(=C/c1ccc(C(=O)O)cc1)CC2,,inactive: -16%
CC(C)OC(=O)c1ccc(N2CCN(c3ccccc3F)CC2)nc1,"inconclusive [inhibitor, single point]",
O=C1c2cccc(OCc3ccc(F)cc3)c2CCN1Cc1ccccc1,"inconclusive [inhibitor, single point]",
COc1cc(OC)c(C2Nc3c(C)cccc3-c3cc(C)nn32)cc1OC (stereo not drawn),"inconclusive [inhibitor, partial curve]",
CCSc1nnc(NC(=O)c2ccc(Br)s2)s1,,inactive: -24.9%
CC(=O)N1c2ccccc2C(C)=CC1(C)C,,inactive: -18.4%
Cc1ccc(S(=O)(=O)N2C[C@H]3C(=O)C[C@@H](c4ccccc4F)N(S(=O)(=O)c4ccc(C)cc4)[C@H]3C[C@H]2c2ccccc2)cc1,"inconclusive [inhibitor, partial curve, poor fit]",
CCOc1ccc(N(CC(=O)NCCc2ccc(C)cc2)S(=O)(=O)c2c(C)noc2C)cc1,active: 23.1 µM,
C[C@H](NS(=O)(=O)c1ccc(Cl)cc1)C(=O)OCC(=O)Nc1cc(S(=O)(=O)N2CCOCC2)ccc1Cl,,inactive: -0.743%
COc1cc2c(cc1OC)CN(CC(=O)Nc1cccc([N+](=O)[O-])c1)CC2,"inconclusive [inhibitor, single point]",
CCN1C(=O)c2ccccc2S(=O)c2ccc(C(=O)N3CCN(c4cccc(C)c4)C(C)C3)cc21 (stereo not drawn),"inconclusive [inhibitor, single point]",
COC(=O)c1ccc(NC(=O)CC2C(=O)N(c3ccc(Cl)cc3)C(=O)N2Cc2ccco2)cc1 (stereo not drawn),active: 16.4 µM,
CCn1c2ccccc2c2cc(/C=N/n3c(-c4cc(C)[nH]n4)n[nH]c3=S)ccc21,active: 20.6 µM,
